According to PMC6919601, “Identification of Plasmodium dipeptidyl aminopeptidase allosteric inhibitors by high throughput screening” (PLoS ONE, 2019):
Hit rate of the full screen: of about 110,000 compounds, about 230 (0.21%) showed an effect of 50% or more. The list shows a part of the results.

Target: DPAP1 (Plasmodium falciparum, UniProt Q8IIJ9)
Experiment: primary screen, percent inhibition; read by cleavage of a fluorogenic dipeptide substrate; higher = more effect of the substance
Parameters: species or system P. falciparum D10 trophozoite lysates; single well
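Further: 30 min substrate incubation versus DMSO and 10 µM JCP410 controls.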

Sequence of DPAP1 (Q8IIJ9 whole entry, looked up): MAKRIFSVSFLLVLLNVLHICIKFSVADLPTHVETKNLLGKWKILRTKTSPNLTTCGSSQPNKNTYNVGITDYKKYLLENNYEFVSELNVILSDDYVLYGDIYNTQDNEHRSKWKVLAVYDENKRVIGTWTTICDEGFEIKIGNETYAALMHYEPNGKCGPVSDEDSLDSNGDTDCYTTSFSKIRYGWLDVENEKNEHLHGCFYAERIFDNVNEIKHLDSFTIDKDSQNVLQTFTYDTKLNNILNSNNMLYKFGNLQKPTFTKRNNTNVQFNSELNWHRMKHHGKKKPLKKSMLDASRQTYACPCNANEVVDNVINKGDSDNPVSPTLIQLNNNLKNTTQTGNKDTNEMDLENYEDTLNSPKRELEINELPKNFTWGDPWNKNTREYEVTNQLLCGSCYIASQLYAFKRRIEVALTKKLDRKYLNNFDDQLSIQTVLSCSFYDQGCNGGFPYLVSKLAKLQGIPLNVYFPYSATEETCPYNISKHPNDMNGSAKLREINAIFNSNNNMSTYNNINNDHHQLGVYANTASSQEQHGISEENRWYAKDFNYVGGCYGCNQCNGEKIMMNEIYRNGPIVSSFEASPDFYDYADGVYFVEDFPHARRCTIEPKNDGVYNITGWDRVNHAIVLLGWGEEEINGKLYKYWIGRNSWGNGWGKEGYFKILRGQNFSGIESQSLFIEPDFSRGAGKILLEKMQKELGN

Row | Structure (SMILES) | % Inhibition @ 10 uM
1 | Nc1nc(O)c(Br)c(NCc2ccccc2)n1 | 0.565%
2 | CCOC(=O)c1c(NC(C)=O)no[n+]1[O-] | 2.09%
3 | O=C(NCc1ccc(F)cc1Cl)C1CCCN(c2nc3ccccc3o2)C1 (centres unmarked) | -6.88%
4 | Cc1ccc(O)c(-n2cc3c(c2-c2ccccc2Cl)c(=O)n(C)c(=O)n3C)c1 | 0.366%
5 | COc1ccc(Br)cc1CNC(=O)Cn1c(-c2ccccc2)cc(C(C)=O)c1C | 3.29%
6 | CCC1CCCCN1C(=O)C1CC(c2ccc(F)cc2)=NO1 (centres unmarked) | 2.85%
7 | c1ccc2oc(-c3ccnc4ccccc34)nc2c1 | -4.24%
8 | Cc1ccc(NC(=O)COc2ccccc2C)cc1F | -2.28%
9 | CCOc1ccc2c(c1)ncn2Cc1ccccc1 | 3.05%
10 | CC(=O)c1cc(-c2ccc(F)cc2)n(CCC(=O)Nc2cc(C)[nH]n2)c1C | -7.35%
11 | CCCn1c2ccccc2c2cnn(CC(=O)O)c(=O)c21 | -1.51%
12 | O=C(Nc1ccc(F)cc1)c1ccccc1NC(=O)C1CCCCC1C(=O)O (centres unmarked) | -4.63%
13 | OC1=C2C(=Nc3ccccc3NC2c2cccnc2)CC(c2ccc(Cl)cc2)C1 (centres unmarked) | -0.958%
14 | CCn1c(-c2ccccc2)cs/c1=N\c1cccc(C)c1 | -14.4%
15 | Cc1nc(-c2ccccc2)c(CC(=O)O)s1 | -1.72%
16 | CC1(C)CC(=O)C2=C(C1)NC(=O)CC2c1ccc(C(C)(C)C)cc1 (centres unmarked) | -3.21%
17 | CSc1nc(-c2ccccc2)nc(S)c1C(C)=O | 44.4%
18 | CCCCCCOc1cccc(N2C(=O)CC3CS(=O)(=O)CC32)c1 (centres unmarked) | 1.35%
19 | CC1(C)CC(=O)C2=C(C1)c1c(ccc3ccccc13)NC2c1ccc(Cl)cc1Cl (centres unmarked) | -12%
20 | Cc1cccc(-n2c(Cc3cccn3C)nnc2SCC(=O)N2CCOCC2)c1C | 3.75%
21 | Cc1[nH]nc2c1C(c1cccc(OCc3ccccc3)c1)C(C#N)=C(N)O2 (centres unmarked) | -0.981%
22 | CC(C)Oc1ccc(CNC(=O)Cc2cccs2)cc1 | -1.7%
23 | C1=C(/C=C/c2ccc3c(c2)OCO3)CCN(Cc2ccccc2)C1 | -7.52%
24 | COc1cc(C(=O)NCCC(C)C)cc(OC)c1OC | 0.843%
25 | CC1CCc2c(sc(NC(=O)C3CC3)c2C#N)C1 (centres unmarked) | -1.44%
26 | CCC(C)c1ccccc1OCC(=O)Nc1ccc(S(N)(=O)=O)cc1 (centres unmarked) | -1.44%

Row | Structure (SMILES) | % Inhibition @ 10 uM
27 | CN(Cc1ccccc1)C(=O)COc1ccc(C(C)(C)C)cc1 | 0.997%
28 | CCOc1ccccc1C1C2=C(O)CC(c3ccc(Cl)cc3)CC2=NC(C)=C1C(=O)OCCOC (centres unmarked) | -2.98%
29 | CCCCNCC(=O)Nc1sc(C)c(C)c1C(=O)OCC | -0.771%
30 | c1coc(CNc2ncnc3c2sc2nc(N4CCOCC4)c4c(c23)CCCC4)c1 | -0.386%
31 | COc1cc(C(F)(F)F)ccc1C(=O)NCCc1ccco1 | 3.47%
32 | COc1ccc(S(=O)(=O)N2CCCC(C(=O)N3CCc4ccccc4C3)C2)cc1 (centres unmarked) | -3.13%
33 | Cc1ccc(SCCC(=O)N2CCN(c3ccccc3)CC2)cc1 | -3.09%
34 | O=C(CO)n1c2ccccc2c2ccccc21 | -3.44%
35 | CCN(CC)CCN1C(=O)c2ccccc2NC1c1cccc(F)c1 (centres unmarked) | 0.24%
36 | OCCN1CCN(c2ncnc3sc4c(c23)CCCC4)CC1 | -4.01%
37 | O=C(c1cnc2ccccc2n1)c1ccco1 | 1.05%
38 | CCOc1cc(C2C3=C(O)CCCC3=NC3=C2C(=O)CCC3)ccc1OCc1ccccc1 (centres unmarked) | -4.49%
39 | COc1ccc(CCNS(=O)(=O)c2cccc(C)c2)cc1OC | 3.9%
40 | N#CC1CCN(C(=O)c2ccc3c(Cl)c4c(nc3c2)CCCC4)CC1 | 1.24%
41 | CCOc1ccc(NC(=O)Nc2cccc(Cl)c2)cc1 | 0.317%
42 | O=S(=O)(Cc1ccccc1)N1CCn2c(nc3ccccc32)C1 | -4.74%
43 | Cc1ccc(CNc2nc3c(S(=O)(=O)c4cccc(Cl)c4)nnn3c3ccsc23)cc1 | 5.6%
44 | COc1ccc(-n2c(=S)[nH]c3sc4c(c3c2=O)CCC4)cc1 | 84.1%
45 | CC(=O)Nc1ccc2[nH]c(-c3ccccc3)nc2c1 | -0.828%
46 | CC(=O)Nc1ccc(NC(=O)c2ccccc2)cc1C | -2.82%
47 | Cc1ccccc1OC(C)C(=O)Nc1cccc(O)c1 (centres unmarked) | 2.93%
48 | CCOC(=O)C1=C(N)OC2=C(C(=O)CC(c3ccccc3Cl)C2)C1c1ccccc1Cl (centres unmarked) | 12.2%
49 | Cn1c(=N)n(CCCOc2ccccc2Cl)c2ccccc21 | 3.81%
50 | CCOc1cc(C)nn1-c1ccccc1 | 4.73%
51 | CC[C@H](NC(=O)[C@H](CS(=O)(=O)Cc1ccccc1)NC(=O)N1CCOCC1)C(=O)CS(=O)(=O)c1ccccc1 | -5.21%
52 | O=C(c1ccccc1C(=O)N1CCN(c2ccccc2F)CC1)N1CCN(c2ccccc2F)CC1 | 0.749%

Row | Structure (SMILES) | % Inhibition @ 10 uM
53 | O=c1ccc2cc3c4c(oc3cc2o1)CCCC4 | 2.21%
54 | O=C(CN1Cc2ccccc2C1=O)N1CCN(Cc2ccccc2)CC1 | 1.86%
55 | COc1ccc(C2=N/C(=C\c3c(OC)ccc4ccccc34)C(=O)O2)cc1 | 4.38%
56 | c1cc(-c2nn[nH]n2)ccn1 | 3.5%
57 | CCOC(=O)N1CCN(Cc2ccc3c(c2)c2ccccc2n3CC)CC1 | 2.1%
58 | COc1ccccc1-c1cc(-c2ccccc2)nc(SCC(=O)c2ccc(Cl)cc2)c1C#N | -4%
59 | CC(NC(=O)c1cnn(-c2ccccc2)c1-n1cccc1)c1ccc2c(c1)OCCO2 (centres unmarked) | 3.4%
60 | Fc1cccc2c1N[C@@H](c1ccccn1)[C@H]1CC=C[C@@H]21 | 2.08%
61 | O=S(=O)(c1ccccc1)c1nnn2c1nc(N1CCC(N3CCCCC3)CC1)c1ccccc12 | -1.6%
62 | CN(C)c1nc(C(N)=O)nc(N2CCOCC2)n1 | 0.628%
63 | Cc1ccccc1CCNCc1c(C(=O)O)n(Cc2ccccc2C)c2ccccc12 | -3.5%
64 | Cc1ccc(NC(=O)CN2C(=O)S/C(=C\c3ccc4c(c3)n(C)c(=O)n4C)C2=O)cc1 | 0.161%
65 | CSCCC(NC(=O)OCc1ccccc1)C(=O)O (centres unmarked) | -4.67%
66 | CCCCCCC1NC(C(=O)O)Cc2c1[nH]c1ccccc21 (centres unmarked) | -1.45%
67 | CC1CC(C)CN(C(=O)CSc2nnc(-c3ccc(F)cc3)o2)C1 (centres unmarked) | 1.8%
68 | CNC(=S)N(CCc1c(C)[nH]c2ccc(F)cc12)Cc1cccnc1 | -2.01%
69 | CC(C)C[C@H](NC(=O)N1CCCN(C)CC1)C(=O)NCC#N | -5.2%
70 | COc1ccc(/C=C2\C(=O)N(c3ccc([N+](=O)[O-])cc3)N=C2c2ccccc2)c(OC)c1 | -5.51%
71 | CCOc1ccc(-c2nonc2NC(=O)c2ccc(C(C)(C)C)cc2)cc1 | -1.11%
72 | Cc1ccc(Oc2ccc(NC(=O)c3ccccc3C(=O)O)cc2)cc1 | -1.07%
73 | O=C(CN1C(=O)S/C(=C/c2cc(Cl)ccc2O)C1=O)N1CCN(c2ccccc2)CC1 | 10.4%
74 | O=S(=O)(Nc1nc2ccccc2s1)c1cccs1 | 0.0654%
75 | CCn1c(NC(=O)c2nn(C)cc2Br)nc2ccccc21 | 0.826%
76 | Cc1ccc(S(=O)(=O)NCCN2CCN(S(=O)(=O)c3ccc(C)c(C)c3C)CC2)c(C)c1C | 1.62%
77 | COc1ccc2cc(-c3nc4ccccc4[nH]3)c(=N)oc2c1 | 2.91%
78 | O=C(CCn1ccc2cc(S(=O)(=O)N3CCCCCC3)ccc21)N1CCN(c2ccccn2)CC1 | 1.59%

Row | Structure (SMILES) | % Inhibition @ 10 uM
79 | CN1C(=O)c2ccccc2C(C(=O)N2CCc3ccccc3C2)C1c1cccs1 (centres unmarked) | -4.49%
80 | COc1ccc2nc(NC(=O)CCn3ccc(C)n3)sc2c1 | -6.5%
81 | Oc1nnc(Cc2ccccc2)c2ccccc12 | -0.807%
82 | O=C(Nc1ccncc1)C(=O)Nc1ccncc1 | 0.827%
83 | CCOC(=O)/C=C(\C)N1N=C2c3ccc(OC)cc3CCC2C1c1cccc(F)c1 (centres unmarked) | 73.1%
84 | CC(=O)C1=C(O)C(=O)N(CCNCCO)C1c1ccc(Cl)cc1 (centres unmarked) | -9.45%
85 | Cn1c(=O)c2c(ncn2CC(=O)Nc2ccc(F)cc2)n(C)c1=O | -2.22%
86 | COc1ccc(C)cc1N(CC(=O)Nc1ccccc1Cl)S(C)(=O)=O | -1.61%
87 | COc1ccc(C2Nn3c(nnc3-c3ccccc3)SC2C(=O)NCC(C)C)cc1Cl (centres unmarked) | -3.53%
88 | O=C(O)C12CC3CC(C1)CC(n1cnc(Cl)n1)(C3)C2 | 2.32%
89 | COc1cc2c(cc1OC)Sc1ccc(Cl)cc1C(=O)C2 | -1.11%
90 | C=CCc1ccccc1OCc1cc(=O)n2oc(C)cc2n1 | -9.6%
91 | CCOc1ccc(CCNc2ncnc3c2oc2ccccc23)cc1OCC | -4.49%
92 | COCc1cc(C)nc2sc(C(=O)Nc3ccc(Cl)cc3)c(N)c12 | 15.1%
93 | CCOC(=O)c1c(NC(=O)c2ccc3c(c2)CC(c2ccccc2)OC3=O)sc(C)c1C (centres unmarked) | -2.92%
94 | COc1cccc(CNC(=O)c2ccc(CS(=O)c3ccccc3Cl)o2)c1OC (centres unmarked) | -0.154%
95 | N#Cc1cnn(-c2cc(Oc3ccccc3)nc(-c3ccccc3)n2)c1N | -0.941%
96 | Cc1ccccc1NC(=O)CN(c1ccccc1Cl)S(=O)(=O)c1ccccc1 | 3.09%
97 | OCCN(Cc1ccccc1)Cc1ccc(F)cc1 | -1.5%
98 | Cc1ccc(-c2noc(CN(C(=O)C3CCCCC3)C(C)C)n2)cc1 | -3.06%
99 | N#CCCNC(=O)c1cccc([N+](=O)[O-])c1 | 4.54%
100 | Cc1nn(C(C)C(=O)NCc2cccnc2)c(=O)c2nn(-c3ccccc3)c(C)c12 (centres unmarked) | -5.35%
101 | CCN(CC)CCNC(=O)CCc1c(C)nc2c(c(C)nn2-c2ccc(C)cc2)c1C | -4.24%
